Reference: the RNAGym collection of RNA variant scans (doi:10.1093/nar/gkz1192)
The source gives no read counts; variants with many changes may rest on few reads.

B1: CPEB3 Ribozyme (parent)
chain: UAACAGGGGGCCACAGCAGAAGCGUUCACGUCGCAGCCCCUGUCAGAUUCUGGUGAAUCUGCGAAUUCUGCUGUAUAUCUC

Variants of: B1
Assay: self-cleavage, relative activity (ratio to wild type); higher = more cleavage; in vitro, sequencing
How it was run: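 Relative activity compares each variant's cleaved/total read fraction with that of the unmutated ribozyme. To get these fractions, barcoded CPEB3 ribozyme libraries from rounds of error-prone PCR were transcribed with T7 RNA polymerase for 5 hours at 37°C and then given 15 min of DNase I treatment before EDTA was added. The RNAs were reverse transcribed with template switching and sequenced on Illumina, and DNA sequencing linked barcodes to variants. A minimum of 5 reads applied, and three batches were averaged.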

| Variant | self-cleavage |
| --- | --- |
| U1C A5C A20G A35G U48A A65G | 0.14 |
| U1C A5C A28G U41C A64G A65G A75U | 0.35 |
| U1C A5C C23U U69C U72C A77U U80C | 0.11 |
| U1C A5C G7U U41A | 0.42 |
| U1C A5C U25C U26A | 0.11 |
| U1C A5G A13G U58C | 0.67 |
| U1C A5G A13U A15G A47G U49A U80C | 0.75 |
| U1C A5G A13U U41C A45G U60A U69A | 0.03 |
| U1C A5G A15G A18G A28G U48A U72G | 0.3 |
| U1C A5G A18G U48A A64G | 0.06 |
| U1C A5G A20U A35G U54C A64G | 0.12 |
| U1C A5G A21G C39U U67C G70A | 0.05 |
| U1C A5G A21U C39U U67C A77G | 0.24 |
| U1C A5G A21U U26C C39U A56U U67C | 0.18 |
| U1C A5G A35G G53A U69C A75G U78A | 0.19 |
| U1C A5G A35U U43C C62U A65C | 0.33 |
| U1C A5G A35U U66C | 0.22 |
| U1C A5G A35U U67C | 0.11 |
| U1C A5G A45U | 0.58 |
| U1C A5G A45U A64G U67G | 0.08 |
| U1C A5G A64U U74C U80C | 0.13 |
| U1C A5G C27U U80C | 0.09 |
| U1C A5G G6A A45U | 0.06 |
| U1C A5G G6U A20U U80C | 0.84 |

| Variant | self-cleavage |
| --- | --- |
| U1C A5G G9A A15G C39G | 0.06 |
| U1C A5G G9A A21U U26C U80A | 0.36 |
| U1C A5G G9U A15U G16C A35G | 0.43 |
| U1C A5G G24A | 0.32 |
| U1C A5G G42A G52A A57U | 0.29 |
| U1C A5G G46A U74C | 0.5 |
| U1C A5G G61U U72C | 0.36 |
| U1C A5G U25C G36A U54C U72C | 0.07 |
| U1C A5G U26A A65G | 0.26 |
| U1C A5G U26C C50U | 0.49 |
| U1C A5G U41A A45U A64U A65C U69A | 0.23 |
| U1C A5G U41C | 0.18 |
| U1C A5G U49G | 0.45 |
| U1C A5G U72G U74C U80C | 0.66 |
| U1C A5G U78C | 0.62 |
| U1C A5G U80C C81U | 0.89 |
| U1C A5U A13G U26C G55U U72C | 0.25 |
| U1C A5U A15G A47G U54A A65G U74C | 0.26 |
| U1C A5U A15G U26C U51A A56G U60C | 0.08 |
| U1C A5U A20G | 0.33 |
| U1C A5U A20U U31C | 0.13 |
| U1C A5U A21G U25A G53C U72C | 0.3 |
| U1C A5U A28G C29U U31A C50U U58C | 0.18 |
| U1C A5U A28U | 1.06 |

| Variant | self-cleavage |
| --- | --- |
| U1C A5U A28U C40A U80A C81G | 0.25 |
| U1C A5U A35U G55A | 0.5 |
| U1C A5U A47G | 0.7 |
| U1C A5U A56U | 0.63 |
| U1C A5U A65G U78C | 0.46 |
| U1C A5U C37A U49C A57G | 0.04 |
| U1C A5U G7C U43C U48C U54C | 0.06 |
| U1C A5U G33A A75G | 0.26 |
| U1C A5U U25A U41A U49A | 0.08 |
| U1C A5U U25C U60C U72C | 0.08 |
| U1C A5U U26A U51G U58A U66C | 0.08 |
| U1C A5U U26C G52U | 0.72 |
| U1C A5U U48C U60A U66C | 0.17 |
| U1C A13C A35G C68A | 0.74 |
| U1C A13C C27U A56G G63A A77C | 0.08 |
| U1C A13C G24A | 0.09 |
| U1C A13C U26C U41A U60C | 0.49 |
| U1C A13C U60C | 0.12 |
| U1C A13G A15G U43C | 0.07 |
| U1C A13G A20G U78C | 0.42 |
| U1C A13G A21G U67C A77U | 0.07 |
| U1C A13G A21U G46A A56G G73A U76C | 0.05 |
| U1C A13G A28U A35U A56U | 0.25 |
| U1C A13G A35U C39G A56U | 0.04 |

| Variant | self-cleavage |
| --- | --- |
| U1C A13G A45G C59A A65G | 0.09 |
| U1C A13G A45G U67C A75G | 0.09 |
| U1C A13G A47G U60C U66A | 0.26 |
| U1C A13G A57G | 0.5 |
| U1C A13G U25C C71U | 0.26 |
| U1C A13G U25C U41A | 0.19 |
| U1C A13G U31C G33C C39U U41C U58A | 0.04 |
| U1C A13G U41A U54C A57U | 0.17 |
| U1C A13G U41C U51A | 0.73 |
| U1C A13G U41C U54C | 0.65 |
| U1C A13G U43C U54A | 0.42 |
| U1C A13G U51A U60C U67C | 0.25 |
| U1C A13G U72C | 0.92 |
| U1C A13U A18G G24A U41A | 0.23 |
| U1C A13U A18U U48C A64U | 0.1 |
| U1C A13U A20G A21G C71A | 0.09 |
| U1C A13U A20G C68A C71U | 0.19 |
| U1C A13U A20G C68G | 0.16 |
| U1C A13U A21G A35U U41C U51A A75G | 0.19 |
| U1C A13U A28G | 0.34 |
| U1C A13U A35G C40U A57G A77U | 1.05 |
| U1C A13U A35U U41C U54C A64G A75G | 0.13 |
| U1C A13U A35U U72C | 0.47 |
| U1C A13U A64G U67C | 0.16 |

| Variant | self-cleavage |
| --- | --- |
| U1C A13U C23U G24C U51G | 0.14 |
| U1C A13U C40U U54A U60A A64G A65G | 0.05 |
| U1C A13U G33A U54A U74C | 0.28 |
| U1C A13U U25C | 0.4 |
| U1C A13U U25C G36A U51C U74C | 0.05 |
| U1C A13U U25C U41G U60A U69C | 0.03 |
| U1C A13U U26A G46U A65G | 0.18 |
| U1C A13U U31A A45G U49C A65G | 0.16 |
| U1C A13U U51A G63A U67C | 0.22 |
| U1C A13U U60C U76C | 0.38 |
| U1C A15C A20G U51A | 0.35 |
| U1C A15C A47G A64G | 0.22 |
| U1C A15G A18G | 0.4 |
| U1C A15G A18G A28G U43C U74A | 0.07 |
| U1C A15G A18G A35G U58A | 0.75 |
| U1C A15G A18G C32U A35U U80A | 0.8 |
| U1C A15G A18U A20G C62U | 0.05 |
| U1C A15G A20U A56G U58C G73A U80A | 0.24 |
| U1C A15G A20U U25C A77U | 0.05 |
| U1C A15G A21U C34U U58A A64U | 0.04 |
| U1C A15G A45U A56G | 0.25 |
| U1C A15G A56U U76A | 0.42 |
| U1C A15G A57C U67C | 0.12 |
| U1C A15G C23U A56U U67C | 0.16 |

| Variant | self-cleavage |
| --- | --- |
| U1C A15G C37A U54C U74C | 0.08 |
| U1C A15G C40U U54C U76A | 0.33 |
| U1C A15G G19U C59A | 0.11 |
| U1C A15G G22C A57G U69A | 0.12 |
| U1C A15G U25C U51C | 0.1 |
| U1C A15G U26C A28G A56U U80C | 0.06 |
| U1C A15G U26C C68U A77G | 0.53 |
| U1C A15G U41G A56G C71A U78C | 0.04 |
| U1C A15G U54C | 0.41 |
| U1C A15G U60C | 0.15 |
| U1C A15G U78C | 0.8 |
| U1C A15U A18G A20G A64G | 0.06 |
| U1C A15U A18G U41A A64G G73A | 0.33 |
| U1C A15U A20G U69C | 0.18 |
| U1C A15U A20U U25C A35G U41C A45U | 0.25 |
| U1C A15U A21G C23U U60G U78C | 0.06 |
| U1C A15U A21U A47G G70A | 0.05 |
| U1C A15U A56U G73C | 0.4 |
| U1C A15U A77U | 0.81 |
| U1C A15U U41A | 0.36 |
| U1C A15U U41A U60A A64G U74G U76A | 0.21 |
| U1C A15U U51A U54C U80C | 0.67 |
| U1C A15U U54C U66C U69C | 0.11 |
| U1C A15U U54C U69C | 0.23 |

| Variant | self-cleavage |
| --- | --- |
| U1C A18C A45G U54A G70A | 0.29 |
| U1C A18C C23U C38G A47G U49C A56U | 0.22 |
| U1C A18C U25A A45G | 0.06 |
| U1C A18C U69C C81U | 0.18 |
| U1C A18G A21G U26A U78C | 0.2 |
| U1C A18G A28G | 0.29 |
| U1C A18G A35G A56U A64U | 0.18 |
| U1C A18G A35G U72C | 0.14 |
| U1C A18G A47G | 0.19 |
| U1C A18G A57G C62U A65G U76A | 0.15 |
| U1C A18G A64U U67A | 0.18 |
| U1C A18G C32A C37A C50U | 0.27 |
| U1C A18G C37A | 0.31 |
| U1C A18G C39G U41C A57U | 0.25 |
| U1C A18G C39U G46A A64G U69C | 0.12 |
| U1C A18G C68A | 0.23 |
| U1C A18G G53C U69A A77C | 0.27 |
| U1C A18G U25A A28U C32U G61A | 0.07 |
| U1C A18G U26C A56U | 0.05 |
| U1C A18G U41A U49C C79A | 0.34 |
| U1C A18G U51A A56U A64G | 0.38 |
| U1C A18G U54G | 0.35 |
| U1C A18G U58C A64U | 0.14 |
